# The full ranking holds about 16,000 sequences; the median of “Z-score” is about -0.37, and the highest 2% start at about 3.2. The list shows a part of the results.
# Test system: RBM10 RRM1-ZnF (GST-tagged construct)
# Assay: RNAcompete 7-mer binding Z-score; higher = stronger binding preference
# Summary of the method: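 GST-tagged RBM10 constructs (20 pmol) were mixed with a designed pool of 241 399 RNAs up to 41 nt (1.5 nmol), transcribed from microarray-derived DNA templates. Mixing was in 1 ml Hepes pH 7.8 buffer with KCl, NaCl, glycerol, DTT, BSA and glutathione Sepharose beads. Binding ran 30 min at 4°C, followed by four 2-min washes at 4°C, and bound RNA was identified by microarray hybridisation. Each heptamer motif received a one-sided Z-score for enrichment across probes containing it.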
row,Sequence,RNAcompete 7-mer binding Z-score
1,CGCUUAC,-0.623
2,AAUAAUC,-0.548
3,ACGGUGG,2.76
4,GUAGGAC,1.4
5,GACAUAA,-0.259
6,UUGUGUA,-0.305
7,ACUACGA,-0.396
8,AUAGCAA,-0.0999
9,UGUUGAU,-0.233
10,UACCCUA,-0.62
11,AUUUAUA,-0.617
12,UCCACAU,-0.681
13,UUCAUCU,-0.717
14,UUGGCCA,-0.366
15,CAUAAAU,-0.681
16,CUGGCGA,-0.0707
17,GCAUUAG,-0.171
18,CUUGUGG,0.000789
19,CAAAUAU,-0.727
20,ACCAACG,-0.483
21,GACAAGC,-0.256
22,UAUGGGA,2.85
23,UUGGGGG,3.56

row,Sequence,RNAcompete 7-mer binding Z-score
1,GGGGGUA,3.99
2,UGUUCGG,0.0853
3,GAGCAAU,-0.126
4,AGCAUUA,-0.555
5,ACCUUUU,-1.03
6,UCUACGC,-0.763
7,CAUCAUU,-0.701
8,GGGACCA,1.25
9,CUAGUAA,-0.487
10,CAUGGUA,0.55
11,CGCUCUG,-0.694
12,AACGUCG,-0.236
13,UGGACAG,1.61
14,AGAAACC,-0.74
15,CGCCAGG,0.384
16,CAACCCA,-0.542
17,UGCCGCG,-0.574
18,GAAAAAG,1.49
19,CAACUGC,-0.753
20,UGCUUCU,-0.665
21,UGUACGG,0.943
22,CGAUUAG,-0.149
23,UAAAUCG,-0.435

row,Sequence,RNAcompete 7-mer binding Z-score
1,AUUCGCA,-0.545
2,UCCAAGA,-0.548
3,AGUUACG,-0.0577
4,GCCGAGC,-0.113
5,CCCACUG,-0.483
6,GGUAUAU,0.956
7,GUUCUUC,-0.698
8,AGGUAGC,0.803
9,AGCGAUC,-0.337
10,ACCUACG,-0.701
11,UUAUGUG,-0.00246
12,GCGGUGC,0.884
13,AAAUGUG,0.501
14,CGGUUUG,0.508
15,GAUCGUC,-0.558
16,UAAGACG,0.17
17,GGUUGUG,2.29
18,CGUCACG,-0.464
19,CUGAAUG,-0.285
20,CGAUAGU,-0.272
21,CAAGUAC,-0.642
22,GCGCGUU,-0.318
23,GCCUCCA,-0.743

row,Sequence,RNAcompete 7-mer binding Z-score
1,UAGGACA,1.11
2,CACAAGA,-0.548
3,CUUUAGA,-0.704
4,ACCGAUG,-0.347
5,GCCUGAA,-0.623
6,AGAGCUG,0.163
7,GUGGGGG,4.47
8,UUAGUCU,-0.662
9,UCGUAUC,-0.672
10,GAGCGCC,-0.402
11,CUACCGU,-0.753
12,CCUCUAU,-0.769
13,AGACAAC,-0.552
14,GUUUCCA,-0.561
15,UUAACGU,-0.324
16,AACGACC,-0.626
17,CAGGGUU,2.15
18,UCGUAGA,-0.318
19,GAGACUG,-0.00571
20,AACGGGC,2.01
21,UAUGCCG,-0.733
22,GCAUCGC,-0.47
23,AACCGAG,-0.168

row,Sequence,RNAcompete 7-mer binding Z-score
1,CGCGCGA,-0.168
2,CUGAGUU,-0.389
3,UGACCUC,-0.805
4,AGGGGUG,3.85
5,GGGUUUG,3.12
6,CGUCCAG,-0.47
7,CAUGCCG,-0.714
8,CUUUUGC,-0.98
9,ACACUUA,-0.665
10,CCUCGUC,-0.623
11,UGACAAU,-0.149
12,AGCUUUU,-0.698
13,GACUUAU,-0.6
14,GCAGAGG,2.29
15,UGAGCCG,-0.201
16,UUCACGU,-0.678
17,UCAUGUA,-0.272
18,CCGAAAA,-0.629
19,AAAGGUU,3.12
20,CUUUGGG,0.654
21,UGGGCGA,2.53
22,GAGGGCC,0.696
23,CUACAUU,-0.87

row,Sequence,RNAcompete 7-mer binding Z-score
1,CAUCGGU,-0.178
2,AGCUGCC,-0.672
3,UUUCAAG,-0.639
4,AGAGGAA,2.29
5,UCGACCC,-0.548
6,AUAAAAU,-0.474
7,AGUCUUG,-0.483
8,AGGGCCA,0.215
9,GCGAAGC,0.0918
10,CGCUACU,-0.61
11,GAUUCCU,-0.727
12,GUCGGGC,0.81
13,UCGGUCG,-0.0837
14,UGAGUAU,-0.0837
15,UUACCGA,-0.529
16,GCCGAGA,-0.275
17,UAUUCCA,-0.769
18,GGAACAC,0.829
19,GUUAUGC,-0.331
20,AAUUACA,-0.555
21,ACGCAGU,-0.37
22,AUUGACG,-0.275
23,AUGCGAG,0.569

row,Sequence,RNAcompete 7-mer binding Z-score
1,CGGCCCG,-0.441
2,CUUACAA,-0.662
3,GAUGACG,0.654
4,CACUGGU,-0.0934
5,CAGGUGA,1.49
6,AAGCGAA,0.056
7,CGCGCAC,-0.35
8,GCAGUGU,0.218
9,GGAUAGA,2.61
10,GUCAGUC,-0.256
11,UAACCCU,-0.815
12,AGAAGCC,-0.733
13,UUCGAUU,-0.691
14,UAAAUCC,-0.789
15,CCCUCAU,-0.779
16,CCCAUUA,-0.954
17,GUAGGCG,1.89
18,UUCAUCC,-0.902
19,CUGAAAC,-0.561
20,GGAUUGC,1.16
21,AGCACCC,-0.49
22,GGAUAGG,4.11
23,GCUGGAC,0.228

row,Sequence,RNAcompete 7-mer binding Z-score
1,GAACGGC,0.693
2,ACUACGC,-0.642
3,AUGGCCC,-0.34
4,AGUUGUA,-0.0642
5,CAAUGUC,-0.75
6,UUGCCCU,-0.617
7,AAUUGAU,-0.194
8,CCAACAC,-0.5
9,CAACAGA,-0.168
10,ACUACAC,-0.506
11,GCCGUAA,-0.555
12,CUUAACG,-0.655
13,ACGCACA,-0.448
14,GGAGUGU,2.48
15,GCGGAAG,1.81
16,ACUAUAC,-0.642
17,CUCUGAC,-0.72
18,CCAAGGU,0.257
19,UCUUUUA,-0.782
20,GCAUUAU,-0.353
21,GUUCUAA,-0.552
22,UGCAGAG,0.482
23,GCCAUCA,-0.678
